# Source: PubChem BioAssay AID720647 (Broad Institute, 2013)
# Hit rate of the full screen: of about 380,000 compounds, about 1,300 (0.34%) were called active. Inconclusive results, whose numbers are uncertain, are shown with a selection of clear calls.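 Rule for the calls: active = drop in luminescence signal, shown as inhibition above about 50% in the replicate tests (limit read from the data, passing the limit was not always enough); inconclusive = probably only some replicates passing the limit; inactive = the rest.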
# Test system: Drosophila bursicon receptor LGR2 (rickets)
# Assay: inhibitors of bursicon-induced LGR2 CRE-luciferase signal, primary screen, cell-based, HEK293, CRE-luciferase reporter, bursicon stimulation (AID 720647);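 note: agonist challenge used bursicon conditioned medium at about half maximal strength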
# Details: bursicon-stimulated, 4 h, at 9.99 µM, hits give high values
row,Compound,inhibition
1,CCOc1cc(CNCCCN2CCOCC2)cc(Br)c1OCc1ccccc1Cl,inconclusive: 10.4%
2,C[C@H](CO)N1C[C@H](C)[C@H](CN(C)Cc2ccc(C(F)(F)F)cc2)Oc2ccc(NC(=O)Nc3ccc(F)cc3)cc2C1=O,inconclusive: 36.8%
3,C[C@H]1CCCCO[C@@H](CN(C)C(=O)Nc2ccc(C(F)(F)F)cc2)[C@@H](C)CN([C@@H](C)CO)C(=O)c2cc(NC(=O)CCC(F)(F)F)ccc2O1,inconclusive: 39.5%
4,O=C(Nc1cnn(C23CC4CC(CC(C4)C2)C3)c1)c1cnn2c(C(F)(F)F)cc(-c3ccco3)nc12,active: 79%
5,OC(C1=CC(=Cc2ccncc2)c2ccccc21)c1ccncc1 (configuration not stated),inactive: 11.7%
6,CCC(=O)Oc1ccc2c(C)cc(=O)oc2c1C(=O)c1ccccc1,inactive: 12.5%
7,CC(C)NC(=O)NC(=O)CSc1ccccc1F,inconclusive: 50.7%
8,c1cc(CNc2ccc3c(c2)OCCO3)ccn1,inconclusive: 44.9%
9,CCOC(=O)/C=C/c1ccc2oc3ccccc3c(=O)c2c1,inactive: -170%
10,CNC(=O)NC(=O)COC(=O)c1ccc(-n2c(C)ccc2C)cc1,inconclusive: -1.98%
11,COc1ccc2c3c([nH]c2c1)[C@H](CO)N(C(=O)C1CCCC1)CC31CN(Cc2nccs2)C1,inactive: -20.3%
12,CC(C)(C)c1ccc(-c2nc(-c3ccncc3)no2)cc1,inconclusive: 47%
13,Cc1cc([N+](=O)[O-])ccc1NC(=O)Nc1ccc(F)cc1F,inconclusive: 46%
14,CCN1CCN(/C=N/c2nc3c(s2)CCCC3)CC1,active: 80%
15,CO[C@@H]1CN(C)C(=O)c2ccc(NC(=O)C3CC3)cc2OC[C@H](C)N(C(=O)Cc2ccccn2)C[C@@H]1C,inactive: -17.1%
16,CO[C@H]1CN(C)C(=O)c2ccc(NC(=O)C3CC3)cc2OC[C@@H](C)N(C(=O)Cc2ccccn2)C[C@H]1C,inconclusive: 96.1%
17,COc1cccc(-c2nnc(-c3ccc4ccccc4c3)o2)c1,inconclusive: 53.5%
18,CCOc1ccc(N=C(NN)c2ccc3ccccc3n2)cc1,inconclusive: 39.3%
19,CC1(Cc2ccc(OC(F)(F)F)cc2)C(=O)Nc2ccc(S(=O)(=O)NC3CCCCC3)cc21 (configuration not stated),inconclusive: 38%
20,Nc1cc2sc(-c3ccc(C(=O)O)cc3)nc2cc1Cl,inconclusive: 60.6%
21,CCCCCCCCCCOC(=O)Cn1c(COc2cccc(C)c2)[n+](C)c2ccccc21,inactive: 9.17%

row,Compound,inhibition
1,CCCNC(=O)c1nnsc1S(=O)(=O)c1ccc(Cl)cc1,active: 96.2%
2,CN(C)C(=O)C[C@@H]1CC[C@H]2[C@@H](COC[C@@H](O)CN2C(=O)C2CCOCC2)O1,inactive: -2.73%
3,CCOc1ccc(NC(=S)N2CCN(S(C)(=O)=O)CC2)cc1,inconclusive: 55.8%
4,Cc1ccc(NC(=O)c2ccccc2NS(=O)(=O)c2ccc(F)cc2)cc1S(=O)(=O)N1CCCCC1,inconclusive: 51.2%
5,COc1cccc(/C=N/Nc2nccnc2Cl)c1O,active: 75.6%
6,C[C@@H]1CN([C@@H](C)CO)C(=O)c2cc(NS(=O)(=O)c3ccc(F)cc3)ccc2O[C@@H]1CN(C)Cc1ccc(C(F)(F)F)cc1,inactive: -5.45%
7,Cc1ccc(CSc2nc3ccncc3[nH]2)cc1,inconclusive: 49.2%
8,COc1ccc(NC(=O)Nc2ccc3c(c2)CC(=O)N([C@@H](C)CO)C[C@@H](C)[C@H](CN(C)C(=O)Nc2c(C)noc2C)O3)cc1,inactive: 18.5%
9,Cc1ccc(-c2cc(C(=O)N(C)Cc3cnn(C)c3C)c3cc(Br)ccc3n2)cc1,active: 71.3%
10,O=C1c2ccccc2S(=O)(=O)c2cc(N3CCN(C(=O)c4ccccc4)CC3)ccc21,inconclusive: 83.7%
11,c1ccc(CCNc2ccnc3cc4ccccc4cc23)cc1,active: 107%
12,Cc1ccc(S(=O)(=O)N2[C@@H](CO)CO[C@H]2CC(=O)OCc2ccccc2)cc1,inconclusive: 51.3%
13,CC(C)C(=O)Nc1ccc2c(c1)C(=O)NC2=O,inconclusive: 3.03%
14,COc1ccc(-c2cc3nc(NCC4CCCCC4)n(C)c(=O)c3s2)cc1OC,inconclusive: 19.2%
15,CCCCCCN1C=CC(=C2C(=O)c3ccccc3C2=O)C=C1,active: 94.5%
16,CCOC(=O)N=Nc1c2ccccc2c2nc3no[nH]c3nc12,active: 101%
17,[O-][n+]1ccccc1/C=C/c1ccccc1,inactive: -1.9%
18,COc1ccc(-c2cc(C)nc3c(-c4ccccc4)cnn23)cc1,inconclusive: 50.1%
19,CCCNC(=O)N[C@H]1CC[C@H](CCNS(=O)(=O)c2cccc(F)c2)O[C@H]1CO,inactive: -1.67%
20,O=C(C1CCCC1)N1CC2(C1)[C@@H](c1ccccc1)[C@@H](CO)N2Cc1ccccc1F,inactive: -6.69%
21,CC1(C)CC(NC(=O)c2ccc(Cl)c(S(=O)(=O)N(Cc3ccccc3)c3ccccc3)c2)CC(C)(C)N1,inconclusive: 58.1%

row,Compound,inhibition
1,COc1cccc(-c2ccc([C@H]3[C@@H](CO)N(C(=O)c4ccccn4)[C@H]3C#N)cc2)c1,active: 66.1%
2,O=C(c1ccc(F)cc1)N1CC(=O)N2[C@@H](CO)[C@@H](c3ccc(C#CC4CCCC4)cc3)[C@@H]2C1,inconclusive: 55.8%
3,CC(C)(C)c1cc(C(=O)N/N=C/c2ccc(O)cc2)n(-c2ccccc2)n1,inconclusive: -17.7%
4,C/C(=N\Nc1ccccc1C(=O)O)c1ccncc1,inactive: -64.3%
5,COc1ccc(C(CCNCc2ccc(F)cc2)c2ccc(F)cc2)cc1 (configuration not stated),active: 59.2%
6,Cn1c(/C=C/c2cccc([N+](=O)[O-])c2)c([N+](=O)[O-])c(=O)n(C)c1=O,inconclusive: 43.6%
7,Cc1ccc(Nc2nc(-c3ccccc3)cs2)nc1,active: 60%
8,Cn1nnc2c[n+](CC(=O)c3ccc4ccccc4c3)cc(Br)c21,inactive: -11.4%
9,C=C1C(=O)[C@@]23[C@H](O)C[C@@H]4C(C)(C)CC[C@H](O)[C@@]4(C)[C@@H]2CC[C@@H]1[C@H]3O,active: 59.3%
10,O=C(COC(=O)c1cccs1)c1ccc2c(c1)OCCO2,active: 81.6%
11,COn1c(-c2ccc(Cl)cc2Cl)nc2ncccc21,inconclusive: 24.2%
12,Cc1ccc(NC(=O)Nc2nnc(-c3ccncc3)s2)cc1C,inconclusive: 43.3%
13,Cc1ccc(/C=N/NC(=O)c2ccccn2)s1,inconclusive: 43.7%
14,COc1ccc(NC(=O)N[C@@H]2CC[C@@H](CCNC(=O)c3ccccc3F)O[C@@H]2CO)cc1,inactive: -11.1%
15,C[C@@H](CO)NC(=O)c1ccc2c3n(nc2c1)-c1ccccc1CO3,inconclusive: 34.1%
16,COc1ccccc1CCn1cnc(-c2ccc(F)cc2F)c1CC(C)C,inconclusive: 42.6%
17,CC(=O)c1cccc(N/C=C\C(=O)c2ccc(C)cc2)c1,inconclusive: 57.9%
18,COCCOc1cc(NCc2ccccc2)c2ncn(C(C)C)c2c1,inconclusive: 53.6%
19,Cc1ccc(-n2nnc(-c3nccn3C)n2)cc1,inconclusive: 5.26%
20,COc1ccc(S(=O)(=O)N(C)C[C@@H]2OCCCC[C@@H](C)Oc3ccc(N(C)C)cc3C(=O)N([C@@H](C)CO)C[C@@H]2C)cc1,inactive: -3.31%
21,COc1ccc(Nc2ncc(F)c(N3CCOCC3)n2)cc1,inconclusive: 33.9%

row,Compound,inhibition
1,COc1cc(OC)c(/C=N/NC(=O)c2ccncc2)cc1Br,inconclusive: 6.85%
2,Cc1cc(C(=O)COC(=O)C2=COCCO2)c(C)n1-c1ccccc1,active: 91%
3,C[C@@H]1CCCCO[C@@H](CN(C)C(=O)Nc2cccc3ccccc23)[C@H](C)CN([C@@H](C)CO)C(=O)c2cc(NC(=O)Nc3cccc4ccccc34)ccc2O1,inactive: 8.11%
4,CN(C)C(=O)c1cc([N+](=O)[O-])ccc1O,inactive: 27.2%
5,S=C(N/N=C/c1ccc2ncccc2c1)Nc1cccnc1,inconclusive: 49.8%
6,CO[C@@H]1CN(C)C(=O)c2cc(NC(C)=O)ccc2OC[C@@H](C)N(Cc2ccc(F)cc2)C[C@H]1C,inactive: 2.06%
7,O=C(NCC1CC1)c1ccc(-c2cn[nH]c2)c2ccoc12,inactive: -13.3%
8,COc1ccc(S(=O)(=O)N2CCCCN3[C@H](CO)[C@H](c4ccc(-c5cccnc5)cc4)[C@@H]3C2)cc1,active: 58.1%
9,COc1cccc(C(=O)Nc2ccc3ccccc3c2)c1,inconclusive: 26.4%
10,Cn1c(=O)c2cc(NC(=O)NCc3ccccc3)ccc2n1C/C=C/c1ccccc1,inconclusive: 51%
11,CC(=O)c1c(C)[nH]c(C(=O)COC(=O)c2cccc(S(=O)(=O)N(C)c3ccccc3)c2)c1C,inconclusive: 36.9%
12,CC(=O)c1ccc(S(=O)(=O)N2CCC(NC(=O)Nc3cccc(F)c3)CC2)cc1,inconclusive: 81.4%
13,OCCNCCCCSc1ccc(Cl)cc1,inconclusive: 12.3%
14,Cn1cc(C(=O)N/N=C/c2c(O)ccc3ccccc23)ccc1=O,inactive: 20.7%
15,CCOc1ccc(OCc2cccc(C(=O)N/N=C/c3cccnc3)c2)cc1,inconclusive: 63%
16,COc1ccc2cc(-c3ccccc3)ncc2c1,inconclusive: 11.8%
17,COc1ccc(S(=O)(=O)N(C)C[C@@H]2Oc3c(NC(=O)c4nc5ccccc5s4)cccc3C(=O)N([C@@H](C)CO)C[C@H]2C)cc1,inconclusive: -8.87%
18,CC1=Nc2ccc(C)cc2N(Cc2ccccc2)C(=O)C1,inconclusive: 57.6%
19,C[C@H](CO)N1C[C@H](C)[C@H](CN(C)S(=O)(=O)c2cn(C)cn2)OCCCC[C@H](C)Oc2ccc(NC(=O)CCC(F)(F)F)cc2C1=O,inactive: -7.5%
